Laboratory results published in PubChem BioAssay AID488969 (Vanderbilt High Throughput Screening Facility, 2010).
Over roughly 110,000 compounds, “z-score” has its median near -0.1; the highest 2% begin near 2. The list shows a part of the results. The source made the active and inactive calls.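 The calls were made as follows: active = z-score in the third read window above 3 or below -3; inactive = the rest.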

Target: Metabotropic glutamate receptor 8 (Rattus norvegicus) (UniProt P70579)
Assay: rat mGluR8 modulators via GIRK flux, primary screen, cell-based, thallium flux, HTS (AID 488969)
Conditions: HEK293 rat mGluR8, GIRK (G protein-gated inwardly rectifying potassium channel) thallium flux, FluoZin2; at 10 µM; stronger effect = higher value; submaximal glutamate (EC20) added with thallium

UniProt P70579, sequence (P70579 whole entry, looked up): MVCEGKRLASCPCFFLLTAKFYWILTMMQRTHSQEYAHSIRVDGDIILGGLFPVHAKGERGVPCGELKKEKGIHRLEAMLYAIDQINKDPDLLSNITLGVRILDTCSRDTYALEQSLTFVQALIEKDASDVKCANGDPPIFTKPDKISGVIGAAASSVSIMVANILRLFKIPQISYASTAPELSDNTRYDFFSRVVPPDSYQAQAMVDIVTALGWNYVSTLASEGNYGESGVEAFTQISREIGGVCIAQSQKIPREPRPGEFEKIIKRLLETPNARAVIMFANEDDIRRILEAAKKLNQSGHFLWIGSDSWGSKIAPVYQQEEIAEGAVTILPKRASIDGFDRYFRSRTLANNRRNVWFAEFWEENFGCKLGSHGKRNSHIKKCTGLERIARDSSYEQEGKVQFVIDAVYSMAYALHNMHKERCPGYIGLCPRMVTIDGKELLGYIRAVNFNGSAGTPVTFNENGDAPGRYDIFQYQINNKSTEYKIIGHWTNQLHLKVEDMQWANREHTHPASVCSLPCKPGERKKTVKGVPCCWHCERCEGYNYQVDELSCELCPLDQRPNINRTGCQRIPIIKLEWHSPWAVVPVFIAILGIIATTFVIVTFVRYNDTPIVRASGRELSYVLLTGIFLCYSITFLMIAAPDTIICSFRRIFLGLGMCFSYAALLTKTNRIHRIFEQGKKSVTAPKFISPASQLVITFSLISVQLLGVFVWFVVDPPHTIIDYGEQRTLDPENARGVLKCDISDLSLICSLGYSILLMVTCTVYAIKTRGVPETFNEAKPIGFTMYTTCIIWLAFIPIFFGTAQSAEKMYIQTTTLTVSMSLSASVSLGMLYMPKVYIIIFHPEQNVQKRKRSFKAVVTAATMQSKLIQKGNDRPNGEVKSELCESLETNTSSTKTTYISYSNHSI

Compound | z-score
N#Cc1cc2c(nc1SCC(=O)Nc1sc3c(c1C#N)CCC3)CCCCCC2 | -0.0358
CCOC(=O)c1nnc(-c2ccc(C)cc2)nc1Oc1ccc(Cl)cc1Cl | 0.061
CCC1(C)N(O)C(C)(C)C(c2ccc(F)cc2)=[N+]1[O-] (stereo unspecified) | -0.195
Cc1cc(=O)[nH]c(N=N/C(=N/Nc2ccccc2C)c2ccccc2)n1 | -0.0508
CCSc1nc(-c2cccnc2)ccc1C#N | -0.504
COc1ccc(CCN2C(=O)CC(NNC(=O)c3ccccc3Br)C2=O)cc1OC (stereo unspecified) | -0.0544
Clc1ccccc1CSc1nncn1NC/C=C/c1ccccc1 | -0.186
CN1CC[n+]2cnc3ccccc3c21 | 0.206
N#Cc1cc2c(nc1SCc1nc3ccccc3[nH]1)CCC2 | 0.426
Nc1ccc(Oc2ccc([N+](=O)[O-])cc2[N+](=O)[O-])cc1 | -0.416
Cc1nn(-c2ccc(Cl)cc2)c(Cl)c1/C=C(\C#N)C(N)=O | -0.0578
O=C(Nc1cccc(Cl)c1)Nc1ccc(Cl)cn1 | 0.563
CCN(C(=O)COc1ccccc1)c1nnc(-c2cccnc2)s1 | -0.182
Cc1cc(C(=O)NCc2ccc(C(=O)O)o2)c(C)o1 | -0.0605
Cc1cc(C=O)c(C)n1-c1ccc(N2CCCCC2)c([N+](=O)[O-])c1 | -0.468
C/C(=N\N1CCN(c2ccc(Cl)cc2)CC1)c1cccs1 | -0.204
CCOC(=O)Cc1nnc(NC(=O)CSc2ccc(C)cc2)s1 | -0.277
CN(C)c1nc(-c2ccccn2)nnc1-c1ccccc1 | 0.482
O=C(NC12CC3CC(CC(C3)C1)C2)N1CCCC(CO)C1 (stereo unspecified) | -0.045

Compound | z-score
COC(=O)C1=C(C)NC(C)=C(C(=O)OC)C1/C=C/c1ccccc1 | -0.188
O=C(Cn1cc([N+](=O)[O-])cn1)N1CCc2ccccc21 | 0.0712
CC(C)C(c1nnnn1C1CCCCC1)N1CCc2ccccc2C1 (stereo unspecified) | -0.536
CN1CCN(CC(=O)NC2CCCCC2)CC1 | -0.239
N#CC1=C(C=Nc2ccccc2O)CCC1 | -0.0637
COc1ccc(OCc2nnc(SCC(=O)N3c4ccccc4Sc4ccc(Cl)cc43)o2)cc1 | -0.0274
CC1Cc2nc(SCC(=O)N3CCN(c4ccccc4)CC3)n(CCc3ccccc3)c(=O)c2S1 (stereo unspecified) | -1.13
CCc1ccc(-c2cc(C(F)(F)F)n3nc(C(=O)Nc4c(C)nn(Cc5ccc(F)cc5)c4C)cc3n2)s1 | -0.262
CCOC(=O)c1c(C)n(C)c2ccc(OCC(O)Cn3nc(C)cc3C)cc12 (stereo unspecified) | -0.498
Cc1onc(-c2ccccc2)c1-c1nc2ccccc2c(=O)o1 | active: -3.37
COc1ccc(-c2nnc(SCC(=O)Nc3ccc(Cl)cc3)n2C)cc1 | -0.405
CCc1ccc2c(c1)[C@]1(C(=O)N2)[C@@H]2C(=O)N(Cc3ccccc3)C(=O)[C@@H]2[C@@H]2CCCN21 | 0.369
Cc1ccc(C(C(=O)NC2CCCC2)N2CCc3ccccc32)cc1 (stereo unspecified) | 1.23
Cc1cccc(-c2nnc3n2N=C(c2ccccc2Br)CS3)c1 | -1.31
O=C(O)C1CCC(=O)N1Cc1ccc(F)cc1 (stereo unspecified) | -0.162
COc1ccc(Oc2nccc(-c3ccc(F)cc3)c2C#N)cc1 | 0.0229
COc1ccc(-c2noc(CN(C)S(=O)(=O)c3ccccc3)n2)cc1OC | 0.388
CCOc1ccc(NC(=O)c2ccc3nccnc3c2)cc1 | -0.221
O=S(=O)(Nc1nc2c(s1)CCCC2)c1ccc(Br)cc1 | 0.621

Compound | z-score
COc1ccc(OC)c(S(=O)(=O)NCCO)c1 | -0.171
Cc1coc2c(C)c3oc(=O)c4c(c3cc12)CCC4 | -0.0995
O=c1c2ccccc2nc(SCc2ccc([N+](=O)[O-])cc2)n1-c1ccc(Cl)cc1 | 0.0194
CCC(Sc1nc2cc3c(cc2c(=O)n1Cc1ccco1)OCO3)C(=O)Nc1cccc(OC)c1 (stereo unspecified) | 0.651
CNC(=O)c1ccccc1F | -0.304
CCc1nccn1S(=O)(=O)c1ccc2ccc(C)cc2c1 | -0.0756
C=CCSc1nc2ccccc2[nH]1 | -0.22
CCOc1ccc(/C=N/Nc2nc(N3CCCC3)nc(N3CCCC3)n2)cc1OC | -0.93
COc1ccc(OC)c(NC(=O)Cn2cc(C(=O)c3ccco3)c3ccccc32)c1 | -0.348
CCOC(=O)c1c(-c2cccc(C)c2)csc1NC(=O)C1CC=CCC1C(=O)O (stereo unspecified) | -0.428
Cc1sc(NC(=S)NC(=O)c2ccc(C(C)(C)C)cc2)c(C#N)c1C | -0.261
Cc1ccc(SC(=O)COc2ccc(C)c(C)c2)cc1 | -0.0165
CC(=O)Nc1ccc(OCC(O)Cn2c3ccccc3c3ccccc32)cc1 (stereo unspecified) | 0.114
CN1C(=O)c2cccc(N(C)C)c2C1=O | -0.183
Cc1ccc(SC(C)C(=O)Nc2cccc(N(C)S(C)(=O)=O)c2)cc1 (stereo unspecified) | -0.229
Cc1ccc(CCNC(=O)C2CCN(C(=O)N(C)C)CC2)cc1 | -0.692
COc1cc(/C=N/NC(=O)c2cncc(Br)c2)ccc1OC(=O)c1ccc2c(c1)OCO2 | -0.781
Cc1cccc(C(=O)NN(C)c2nc(-c3ccccc3)nnc2C(F)(F)F)c1 | 0.215
